Measured values taken from paper PMC6919601, “Identification of Plasmodium dipeptidyl aminopeptidase allosteric inhibitors by high throughput screening” (PLoS ONE, 2019).
Values joined by “and” are separate entries in the source; they are usually repeats but may differ in a detail not shown here. Identical values can stand only once. The whole screen tested about 110,000 compounds, of which about 230 (0.21%) showed an effect of 50% or more. Some of the results follow.

The molecules below were run against DPAP1 (Plasmodium falciparum, UniProt Q8IIJ9) (assay: primary screen, percent inhibition; read by cleavage of a fluorogenic dipeptide substrate; higher = more effect of the substance).
Set-up: species or system P. falciparum D10 trophozoite lysates; single well
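Note: 30 min substrate incubation versus DMSO and 10 µM JCP410 controls.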

Sequence of DPAP1 (Q8IIJ9 whole entry, looked up): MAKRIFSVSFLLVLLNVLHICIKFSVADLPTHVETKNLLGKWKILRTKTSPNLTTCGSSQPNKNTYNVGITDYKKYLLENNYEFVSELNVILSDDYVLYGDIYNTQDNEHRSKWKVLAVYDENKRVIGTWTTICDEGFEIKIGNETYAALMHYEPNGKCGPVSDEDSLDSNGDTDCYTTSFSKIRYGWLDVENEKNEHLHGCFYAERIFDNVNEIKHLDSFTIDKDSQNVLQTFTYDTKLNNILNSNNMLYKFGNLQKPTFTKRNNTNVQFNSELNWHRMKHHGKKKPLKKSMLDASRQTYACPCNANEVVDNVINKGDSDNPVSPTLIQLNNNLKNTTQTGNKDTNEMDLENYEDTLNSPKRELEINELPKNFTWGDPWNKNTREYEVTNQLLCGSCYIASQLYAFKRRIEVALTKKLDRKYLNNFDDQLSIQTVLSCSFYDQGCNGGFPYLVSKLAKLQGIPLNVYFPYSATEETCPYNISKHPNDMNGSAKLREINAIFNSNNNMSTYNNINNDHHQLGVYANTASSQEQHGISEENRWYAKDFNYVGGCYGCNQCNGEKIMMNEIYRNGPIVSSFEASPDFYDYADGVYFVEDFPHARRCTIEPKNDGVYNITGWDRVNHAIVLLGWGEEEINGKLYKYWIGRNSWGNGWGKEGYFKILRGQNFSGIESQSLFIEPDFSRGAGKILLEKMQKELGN

Row | Compound | % Inhibition @ 10 uM
1 | CCOc1ccc(CNCCSc2nnnn2C)cc1OCC | 0.00706%
2 | CC(C)NC(=O)c1nn2c(C(F)(F)F)cc(-c3ccco3)nc2c1Cl | 1%
3 | N#Cc1ccccc1NC(=O)NS(=O)(=O)c1ccccc1Cl | -0.962%
4 | O=C(Cn1nc(-c2ccccc2)ccc1=O)NCc1cccnc1 | 3.79%
5 | CCc1ccc(Cn2nnc(C(=O)NCc3ccc(Cl)cc3Cl)c2N)cc1 | -3.48%
6 | COc1ccc(Cn2c(=O)c3cccnc3n(Cc3ccc(C)cc3C)c2=O)cc1 | 3.32%
7 | COc1ccc(CN2CCN(Cc3ccccc3Cl)CC2)cc1 | -5.46%
8 | C=CCn1c(S)nnc1-c1cc(Cl)ccc1OC | 2.09%
9 | CCc1ccccc1NC(=O)c1ccc(-c2ccccc2)cc1 | 3.1%
10 | CCOC(=O)N1CCN(c2c(NCc3ccc(OC)cc3)c(=O)c2=O)CC1 | 1.93%
11 | COC(=O)c1ccc2oc(=O)c(-c3nc(-c4cccnc4)no3)cc2c1 | -4.02%
12 | Cc1nn(-c2ccc(F)cc2)c2c1C(c1ccccc1)C(C#N)=C(N)O2 (stereo not drawn) | -13.6%
13 | COc1nc(C)nc(NC(=O)NS(=O)(=O)Nc2ccc(Cl)c(Cl)c2)n1 | -6.52%
14 | C=CCNC(=O)c1c(-c2ccccc2)noc1C | -2.09%
15 | COc1cc2c(cc1OC)C(c1ccc3c(c1)OCO3)NCC2 (stereo not drawn) | -0.0372%
16 | O=C1C2C3C=CC(C3)C2C(=O)N1CN(CC1CCCO1)CN1C(=O)C2C3C=CC(C3)C2C1=O (stereo not drawn) | 7.78%
17 | Cc1cc(Nc2ccc(N)c(C)c2)ccc1N | 0.847%
18 | COc1ccc(OCC(=O)Nc2cccc(O)c2)cc1 | -6.02%
19 | O=C(CSc1nc(O)c2ccccc2n1)Nc1cccc(Cl)c1Cl | -0.872%
20 | COc1ccc(/C=C(\C#N)c2nc(-c3ccc(Cl)cc3)cs2)cc1 | -4.31%
21 | CN(Cc1ccccc1)C(=O)C1CCN(c2ncnc3c2nc2n3CCCCC2)CC1 | 0.244%
22 | Cc1nn(CC(=O)NCCC2=CCCCC2)c(=O)c2nn(-c3ccccc3)c(C)c12 | 2.65%
23 | CCn1nc(-c2ccccn2)nc2c(=O)n(C)c(=O)nc1-2 | 17%
24 | CCCCSCCCNC(=O)CSCc1nc(-c2ccc(OCC)cc2)oc1C | 2.15%
25 | Cc1ccc(C2CC(c3c(F)cccc3Cl)n3ncnc3N2)cc1C (stereo not drawn) | 0.219%
26 | Cn1c(=O)c2c(ncn2CCOC(c2ccc(F)cc2)c2ccc(F)cc2)n(C)c1=O | -1.57%

Row | Compound | % Inhibition @ 10 uM
27 | COc1cc2c(cc1OC)CN(C/C(Cl)=C/c1ccccc1)CC2 | -3.42%
28 | Cc1c(Cl)cccc1NC(=O)c1ccc2c(c1)C(=O)N(Cc1cccnc1)C2=O | 4.44%
29 | Cc1sc(NC(=O)c2cccs2)nc1-c1ccccc1 | 1.84%
30 | C=CCOC(=O)C1=C(C)NC(=O)NC1c1cccc(OCc2ccccc2)c1 (stereo not drawn) | -1.17%
31 | Sc1nc2cnccc2n1Cc1ccccc1 | 0.774%
32 | CCN(CC)c1nnc(N)s1 | -6.36%
33 | CC(CN1CCCC(O)C1)c1ccccc1 (stereo not drawn) | -5.26%
34 | CC1CCc2c(sc3nc(-c4ccco4)oc(=O)c23)C1 (stereo not drawn) | 0.345%
35 | CCC1CCC(NCC2CCCO2)CC1 (stereo not drawn) | 0.0792%
36 | O=C(CSc1nnnn1-c1ccccc1)Nc1c(-c2ccccc2)nc2ccccn12 | 1.03%
37 | CC(=O)NC1=C(C(=O)c2ccccc2)N(C)S(=O)(=O)c2ccccc21 | 0.0598%
38 | COCCCNC(=O)CN1Cc2ccccc2C1=O | 1.6%
39 | O=C(/C=C/c1ccccc1)ONC(=O)c1ccc(Cl)cc1 | -11%
40 | CC(C)Oc1ccc(-c2cc(C(=O)NCCCN3CCOCC3)c3ccccc3n2)cc1 | -12.3%
41 | CCOC(=O)c1c(C)c(C(=O)N2CCc3ccccc3C2)c(C)n1CC | -3.44%
42 | O=C1C(NC2CCCCC2)=C(N2CCOCC2)C(=O)c2ccccc21 | -1.47%
43 | O=C(Cn1c2c(c(-c3ccccc3Cl)cc1=O)CCC2)NCCCN1CCOCC1 | 2.35%
44 | O=C1/C(=C/c2ccc(Br)o2)Sc2ccccc21 | 1.4%
45 | CC(=O)NCCc1ccc(S(=O)(=O)N2CCCCC2)cc1 | 0.413%
46 | C=CCn1c(Oc2ccc(C#N)cc2)nc2c1c(=O)n(C)c(=O)n2C | -2.83%
47 | CSc1ccccc1NC(=O)C1C2C=CC(O2)C1C(=O)O (stereo not drawn) | -0.661%
48 | C=CCN(Cc1cc(OC)ccc1OC)C(=O)Nc1cccc(Cl)c1 | 4.11%
49 | CC(=O)Nc1ccccc1-c1nn[nH]n1 | -3.27%
50 | COc1ccc(-n2c(SCC(=O)c3ccc(Cl)cc3)nc3nncc-3c2O)cc1 | -0.256%
51 | NC(=O)c1cnn(Cc2ccc(Cl)cc2)c1N | 1.74%
52 | CCC1CCc2nc3sc(C(=O)Nc4ccc(OC)c(OC)c4)c(N)c3cc2C1 (stereo not drawn) | -10.7%

Row | Compound | % Inhibition @ 10 uM
53 | CC(=O)Nc1ccc(NCCC#N)cc1 | 0.132%
54 | Cc1cc(O)nc(SCC(=O)Nc2ccc(Br)cc2)c1C#N | 2.55%
55 | COc1ccc(-c2noc(N3CCc4ccccc4C3)n2)cc1 | -5.05%
56 | CCNC(=O)CN(c1ccc(C)cc1)S(=O)(=O)c1ccc(OCC)cc1 | -3.25%
57 | O=C(COc1c(F)c(F)c(F)c(F)c1F)Nc1nonc1-c1ccccc1 | 2.29%
58 | CC(C)C[C@H](NC(=O)C1(NC(=O)c2ccc(C(C)(C)C)cc2)CCCCC1)C(=O)c1nc2ccccc2o1 | -3.04%
59 | CCOc1cc2c(cc1OCC)C(c1ccc(C)cc1C)NCC2 (stereo not drawn) | -3.04%
60 | Cc1cccc(N2C(=O)c3cccc4cccc(c34)C2=O)n1 | -1.93%
61 | CCn1cc(/C=C(\NC(=O)c2ccccc2)C(=O)NCCO)c2ccccc21 | 4.61%
62 | CC(=O)c1cc2c(cc1NC(=O)c1ccc(Cl)cc1)OCCO2 | 5.7%
63 | Cc1ccccc1NC(=O)C1CC(=O)N(c2ccc3c4c(cccc24)CC3)C1 (stereo not drawn) | -5.27%
64 | O=C(NCC12CC3CC(CC(C3)C1)C2)c1nc(-c2cccs2)no1 | 4.61%
65 | CC(C)CNC(=O)c1c2c(nn1C)-c1ccccc1SC2 | -9.6%
66 | Brc1ccc(-c2ccc(/C=C/c3nc4ccccc4o3)o2)cc1 | 1.87%
67 | Cc1ccc(-n2ncc3c(O)nc(SCC(=O)N4CCOCC4)nc32)cc1 | -3.35%
68 | Cc1ccc(C2c3c(oc4ccccc4c3=O)C(=O)N2c2nccs2)o1 (stereo not drawn) | -4%
69 | O=C(Cn1cccc1C(=O)c1ccccc1)NCCCN1CCOCC1 | -9.79%
70 | COc1ccc(/C=C/c2ccncc2)c2ccccc12 | -0.0404%
71 | Cc1ccc(-c2csc(/C(C#N)=C\Nc3ccccc3)n2)cc1 | 2.46%
72 | COc1ccccc1N1C(=O)CC(Nc2ccc(N3CCOCC3)cc2)C1=O (stereo not drawn) | 5.12%
73 | CCC1CCCCN1S(=O)(=O)c1ccc(C)cc1 (stereo not drawn) | -3.41%
74 | Cc1ccc(-c2cc(=O)n3cnnc3s2)cc1 | 1.76%
75 | Cc1nn(Cc2ccc(C(=O)NC3C4CC5CC(C4)CC3C5)o2)c(C)c1Br (stereo not drawn) | 1.93%
76 | CC(C)C[C@H](NC(=O)OC1CCCC1)C(=O)NCC#N | -1.41%
77 | COCCNC(=O)CN(c1ccccc1)S(=O)(=O)c1ccc(C)cc1 | -6.75%
78 | CC(NC(=O)c1ccc(C(=O)NC(C)c2ccccc2)cc1)c1ccccc1 (stereo not drawn) | 0.188%

Row | Compound | % Inhibition @ 10 uM
79 | O=C(c1ccc(CN2CCOCC2)cc1)N(Cc1ccccc1)Cc1ccccc1 | -1.59%
80 | COCCCNC(=O)c1cc(-c2ccc(OC)cc2)nc2ccc(C(C)C)cc12 | 4.36%
81 | O=C(Nc1c(C(=O)O)oc2ccc(Cl)cc12)c1ccc(C(F)(F)F)cc1 | -2.8%
82 | Cc1nn(-c2ccc(Cl)cc2)c(O)c1/C=N/c1ccc(C(=O)N(C)C)cc1 | 5.58%
83 | Cc1ccc(/N=C2\C(=O)N(CN3CC(C)OC(C)C3)c3ccccc32)cc1C (stereo not drawn) | -0.759%
84 | O=C(NCCN(Cc1ccco1)C1CCCC1)c1cc2ccc3cccnc3c2[nH]1 | -3.84%
85 | CCC(=O)Oc1ccc(CNC(C)(C)C)cc1 | 1.7%
86 | COc1ccc(CSc2nncn2N)cc1Cl | -1.26%
87 | COc1ccc2[nH]c3c(=O)n(CCCCC(=O)NCCc4sccc4C)c(=S)[nH]c3c2c1 | 0.351%
88 | O=C(CN(c1ccc(-c2ccccc2)cc1)S(=O)(=O)c1ccccc1)N1CCCCC1 | 1.93%
89 | COc1ccc(-c2noc(CNC(=O)COc3ccc(C(C)C)cc3Br)n2)cc1 | 0.486%
90 | CCC(C)(C)C1CCc2c(sc(NC(=O)C(C)C)c2C(N)=O)C1 (stereo not drawn) | -0.865%
91 | Cc1ccc(Cn2cnc3cc(C)c(C)cc32)cc1 | -7.83%
92 | CC(=O)Nc1ccc(S(=O)(=O)Nc2ccc(Cl)cc2)cc1 | -7.5%
93 | COCCNC(=O)c1cnc2ccc(S(=O)(=O)N3CCOCC3)cc2c1O | -3.21%
94 | CCO/C(O)=C1\C(C)=NC2=C(C(=O)CCC2)C1c1ccccc1OCc1ccccc1 (stereo not drawn) | 0.736%
95 | Cc1ccc(CCNC(=O)CCNS(=O)(=O)c2ccc3nc(O)ccc3c2)cc1 | -7.1%
96 | O=C(Cn1cnc2ccccc21)Nc1cccc(C(F)(F)F)c1 | -4.61%
97 | CN(Cc1ccccc1)S(=O)(=O)c1nnc(NC(=O)CN2C(=O)c3ccccc3C2=O)s1 | -0.959%
98 | CCOc1ccccc1NC(=O)CCC1CCCC1 | -0.872%
99 | COc1ccc(/C=C2/C(=O)c3ccc(C(=O)O)cc3C2=O)cc1OC | -1.6%
100 | c1ccc(CC(NCc2c[nH]c3ccccc23)c2ccccc2)cc1 (stereo not drawn) | -5.16%
101 | NC(=O)C(Cc1ccccc1)C1=NC2(CCCC2)Cc2ccccc21 (stereo not drawn) | -0.884% and -3.26%
102 | Cc1cccc(C)c1NC(=O)CN1C(=O)S/C(=C/c2cc(C)n(-c3ccncc3)c2C)C1=O | -2.29%
